The values below come from PubChem BioAssay AID686979 (National Center for Advancing Translational Sciences (NCATS), 2013).

SMILES strings stand for the structures. Screen size: about 420,000 compounds; about 50,000 (12%) were called active. Not shown: some 26% with an inconclusive outcome. Calls come from the whole dose curve; as a rule, active = well fitted inhibition curve with a large enough effect; inconclusive = small, poorly fitted or top-dose-only effect; inactive = flat fitted curve, though single readings scatter. This is a selection; strong and weak results do not stand in their true shares. Some structures have more than one record in an assay (separate samples or runs), and their calls can disagree.
% is set by controls: 0 for no effect and ±100 for the full control effect; potency is the fitted concentration of half-maximal effect.

The nature of this assay: qHTS for Inhibitors of human tyrosyl-DNA phosphodiesterase 1 (TDP1): qHTS in cells in presence of CPT. Note: nearly all actives have a fitted effect of over 55% in size. The conditions noted are these: chicken DT40 Tdp1-/-;hTDP1 cells + 20 nM CPT, ATP luminescence, 48 h; series mostly up to 46.2 µM; activity change, negative = growth inhibition: at the top concentration. In a few lines: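 Cell growth measured by CellTiter-Glo luminescence after a minimum 48 h, 37 C compound exposure with 20 nM CPT in Tdp1-knockout DT40 cells stably expressing hTDP1, seeded 400/well; qHTS titration format.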
(In general: Quantitative high-throughput screening tests each substance at several concentrations.)
With `O=C1c2ccccc2C(=O)c2c(O)c(O)cc(O)c21`, the Potency result was “inactive”.

For the compound `O=C1/C(=C\c2cccnc2)SC(=S)N1c1ccc(F)cc1`, the “activity change, negative = growth inhibition” value is inactive: -15.6%.

As to `Cc1cc(C(=O)COc2cccc(-n3cnnn3)c2)c(C)n1-c1ccccc1`, the Potency was active: 23.1 µM.

Take `C/C=C/C=N\NC(=O)c1ccncc1`: the “activity change, negative = growth inhibition” value was inactive: 0.212%.

Regarding `COC(=O)[C@]12CCCCC=C1N(CCc1ccc(OC)c(OC)c1)C(=O)[C@H](CC(=O)NCc1cccc3ccccc13)C2`, the Potency was active: 10.3 µM.

In the case of `N#CC[C@H](Cc1ccccc1)N1CCN(Cc2ccccc2)CCC1=O`, the “activity change, negative = growth inhibition” value was inactive: -14.8%.

Turning to `COc1ccc(/C=C/C(=O)c2ccc([N+](=O)[O-])o2)cc1OC`, the Potency was active: 0.58 µM.

Consider `CNCC(O)c1ccc(O)c(O)c1` (configuration not stated), for which the “activity change, negative = growth inhibition” value is inactive: 2.19%.

Regarding `O=C(NCc1ccccc1)c1cc2ccccc2o1`, the “activity change, negative = growth inhibition” value is inactive: -25.4%.

As for `Nc1ccn(C2OC(CO)C(O)C2O)c(=O)n1` (configuration not stated), the Potency is active: 0.0164 µM.

`CCOc1cc(NC(=S)NCC(C)C)c(OCC)cc1NC(=O)c1ccco1`: the Potency is active: 14.6 µM.

Turning to `Cc1cccc(NC(=O)Nc2ccc(Br)cc2)n1`, the “activity change, negative = growth inhibition” value is inactive: -10.5%.

In the case of `CCOC(=O)c1c(NC(=O)c2cc(CC(C)C)on2)sc(C(C)=O)c1C`, the “activity change, negative = growth inhibition” value is inactive: -27.7%.

Consider `COc1cc(NC(=O)N2CCC3(CC2)Nc2ccccc2-n2cccc23)cc(OC)c1OC`, for which the Potency is active: 20.6 µM.

For the compound `Cc1noc(C)c1COc1cccc(C(=O)NCCc2c[nH]c3ccccc23)c1`, the Potency was active: 13 µM.

For `C[C@@H]1CN([C@H](C)CO)C(=O)CCCn2nncc2CO[C@H]1CN(C)Cc1ccc2c(c1)OCCO2`, the “activity change, negative = growth inhibition” value is inactive: 5.61%.

For the compound `COc1ccc(S(=O)(=O)N2CCC[C@H]2C(=O)N2CCC[C@H]2C(=O)NCc2ccncc2)cc1C`, the “activity change, negative = growth inhibition” value was inactive: -35.1%.

`CCCCCCCCn1c2c(c(=N)c3ccccc31)CCC2`: the Potency was active: 0.411 µM.

As for `COc1ccc(-n2c(C)c3c(C)nnc(C)c3c2C)cc1OC`, the Potency is active: 16.4 µM.

With `CC(=O)C1=CCC(c2ccccc2)N(S(=O)(=O)c2ccccc2C)C1` (configuration not stated), the “activity change, negative = growth inhibition” value was inactive: -26.9%.

As to `CCOc1ccc(NC(=O)N2CCC(c3ccc(C)cc3)C2)cc1` (configuration not stated), the “activity change, negative = growth inhibition” value is inactive: -23.4%.

Turning to `O=C(CCc1ccccc1)N[C@@H]1c2ccccc2CC[C@@H]1OCc1ccccc1`, the “activity change, negative = growth inhibition” value is inactive: -23.6%.

`O=C(Cn1c(C(=O)OCCO)cc2ccccc21)c1ccccc1`: the Potency was active: 8.2 µM.

Consider `COc1ccc(NC(=O)CN(C)S(=O)(=O)c2cccc3nsnc23)cc1`, for which the “activity change, negative = growth inhibition” value is inactive: -22.5%.

In the case of `O=C(NCc1ccco1)c1cc(S(=O)(=O)N2CCCc3ccccc32)ccc1Cl`, the Potency is active: 14.6 µM.

In the case of `COc1cc(NS(=O)(=O)c2ccc(N)cc2)ncn1`, the “activity change, negative = growth inhibition” value is inactive: 4.62% [at 21.1 µM].

As for `COc1ccc(C(=O)Nc2nnc(S(=O)(=O)N3CCC(C)CC3)s2)cc1OC`, the “activity change, negative = growth inhibition” value is inactive: -13.3%.

On to `O=C(NCCc1ccccc1)c1ccc(CSc2nc3ccncc3n2Cc2ccccc2F)cc1`, for which the Potency is active: 14.6 µM.

For the compound `C[C@H](CO)N1C[C@H](C)[C@@H](CN(C)C(=O)NC2CCCC2)Oc2cc(Br)ccc2S1(=O)=O`, the “activity change, negative = growth inhibition” value was inactive: -29.8%.

In the case of `Cc1ccc(S(=O)(=O)N(C)C[C@H]2OCc3cnnn3CCCC(=O)N([C@@H](C)CO)C[C@H]2C)cc1`, the “activity change, negative = growth inhibition” value is inactive: -11.8%.

`COc1cccc(CC(=O)NCC2(N3CCCCC3)CCCCC2)c1`: the “activity change, negative = growth inhibition” value is inactive: 17.8%.

For `COc1ccc(Cl)cc1C(=O)NCCc1ccc(S(=O)(=O)NC(=O)NC2CCCCC2)cc1`, the Potency entry was “inactive”.

`CC[C@@H]1[C@H]2CCCC(=O)N3CC[C@@H](C[C@@H]1OC(=O)NCc1ccccc1)[C@@H]23`: the “activity change, negative = growth inhibition” value is inactive: -2.62%.

For `C[C@@H]1CN([C@@H](C)CO)C(=O)CCCn2nncc2CO[C@H]1CN(C)S(=O)(=O)c1ccc2c(c1)OCCCO2`, the “activity change, negative = growth inhibition” value is inactive: 6.38%.

On to `COc1cccc(-n2cc(C(=O)NCc3ccc(C)cc3)c3ccccc3c2=O)c1`, for which the Potency was active: 14.6 µM.

As for `COc1cc(C(=O)N2CCCc3ccccc32)cc(OC)c1OC`, the Potency is active: 18.4 µM.

In the case of `CCOC(=O)[C@@H]1[C@H]2COc3cc(OC)ccc3[C@H]2N2C(=O)N(c3ccccc3)C(=O)[C@]12C`, the “activity change, negative = growth inhibition” value was inactive: 6.2%.

For the compound `CCN(CCCCOC(=O)c1ccc(OC)c(OC)c1)C(C)Cc1ccc(OC)cc1` (configuration not stated), the Potency entry was “inactive”.

For the compound `CCOc1ccccc1NC(=O)CCS(=O)(=O)c1ccc(OC)cc1`, the “activity change, negative = growth inhibition” value was inactive: -14.9%.

As for `Cc1ccc(Cn2ccnc2SCC(=O)NC2CCCC2)cc1`, the “activity change, negative = growth inhibition” value was inactive: 2.69%.

As to `CC(=O)Nc1cccc(NC(=O)CSc2nccn2Cc2ccco2)c1`, the “activity change, negative = growth inhibition” value was inactive: -23.3%.

As to `CCOC(=O)N1CCN(S(=O)(=O)N2CCCC(C(=O)NCc3ccccc3OC)C2)CC1` (configuration not stated), the “activity change, negative = growth inhibition” value was inactive: -25.4%.

`COc1ccc(/C=N/NS(=O)(=O)c2ccccc2)cc1OC`: the Potency was active: 20.6 µM.

For `C[C@H](O)[C@H](O)[C@H]1CNc2nc(N)[nH]c(=O)c2N1`, the “activity change, negative = growth inhibition” value was inactive: -1.79%.

Turning to `CC(=O)Nc1ccccc1NC(=O)c1cccc2ccccc12`, the “activity change, negative = growth inhibition” value was inactive: 1.36%.

Regarding `OC(CCN1CCCC1)(c1ccccc1)C1CCCCC1` (configuration not stated), the Potency result is “inactive”.

`CC(CN(C)C)CN1c2ccccc2CCc2ccccc21` (configuration not stated): the “activity change, negative = growth inhibition” value is inactive: 4.14%.

In the case of `COC(=O)[C@H]1[C@H]2C[C@H]3c4[nH]c5ccccc5c4CCN3C[C@H]2CC[C@@H]1O`, the Potency entry was “inactive”.

As for `COc1cc(C(=O)Nc2ccc(S(=O)(=O)N(C)c3ccccc3)cc2)cc(OC)c1OC`, the Potency is active: 16.4 µM.

Regarding `COc1ccc(/C=C/C(=O)N[C@@H](C)C(=O)O)cc1`, the “activity change, negative = growth inhibition” value was inactive: 38.6%.

For `CC(C)(C)NC(=O)[C@H]1CC[C@H]2[C@@H]3CC[C@H]4NC(=O)C=C[C@]4(C)[C@H]3CC[C@]12C`, the “activity change, negative = growth inhibition” value is inactive: -28.3%.

For the compound `Cc1cc(=O)oc2cc(OCC(=O)N3c4ccccc4CC3C)ccc12` (configuration not stated), the Potency is active: 4.11 µM.

For `COc1cc(Cl)c(C)cc1NC(=O)c1ccc2c(SCC(=O)O)c3c(nc2c1)CCCC3`, the “activity change, negative = growth inhibition” value is inactive: 1.68%.

Regarding `C/C(=N/NC(=O)c1ccncc1)C1=C(O)CC(C)(C)CC1=O`, the “activity change, negative = growth inhibition” value was inactive: 31.5%.

As to `CNC[C@H]1Oc2cc(Br)ccc2S(=O)(=O)N([C@@H](C)CO)C[C@H]1C`, the “activity change, negative = growth inhibition” value was inactive: -21.5%.

Regarding `O=C(Nc1cccc(Cl)c1Cl)c1cc(S(=O)(=O)NCCc2ccccc2)ccc1F`, the “activity change, negative = growth inhibition” value was inactive: -14%.

With `C[C@H](CO)N1C[C@H](C)[C@@H](CN(C)C(=O)Nc2ccc(C(F)(F)F)cc2)Oc2c(NC(=O)NC3CCCCC3)cccc2C1=O`, the “activity change, negative = growth inhibition” value is inactive: -83.7%.
